Measurements: PubChem BioAssay (NCATS)
Inconclusive results, whose numbers are uncertain, are shown with a selection of clear calls. Potencies of inconclusive entries are doubtful fits and often do not repeat. Calls of active or inactive are those of the source. The call rests on the fitted dose curve; in most records, active means well fitted inhibition curve with a large enough effect; inconclusive means small, poorly fitted or top-dose-only effect; inactive means flat fitted curve, though single readings scatter.

Assay: qHTS Assay for Inhibitors of Fructose-1,6-bisphosphate Aldolase from Giardia Lamblia: Mammalian cellular toxicity (AID 2786);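 further: compound exposure lasted 48 h before reading; nearly all actives have a fitted effect of over 60% in size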
Conditions: mammalian cell viability counter-screen; series mostly up to 57.5 µM; viability change, negative = toxicity: at the top concentration
Procedure, shortened: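 Chinese hamster ovary cells (250/well, DMEM with 10% FBS and penicillin/streptomycin) were exposed to compounds for 48 h at 37 °C, 5% CO2. Viability was taken as cellular ATP content, read with ATPlite reagent after 20 min.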
On the % scale 0 is the no-effect control and ±100 the full control effect; potency means the concentration at half of the fitted maximal effect; tags describe the fitted curve by direction and shape.

SMILES | Potency | viability change, negative = toxicity
O=C(NNC(=S)Nc1ccc(Cl)c(Cl)c1)c1ccccn1 | inconclusive: 31.6 µM [inhibitor, partial curve] | –
Cc1cc(Sc2nc(N)ncc2[N+](=O)[O-])ncn1 | inconclusive: 31.6 µM [inhibitor, single point] | –
CNCCC1Sc2ccccc2Oc2ccccc21 (stereo not given) | – | inactive: 3.87%
CCNC(=S)NNc1ccccc1 | – | inactive: 10.8%
NC(=S)Nc1nc2ccccc2s1 | inconclusive: 50.1 µM [inhibitor, single point] | –
O=C(NC(=S)N1CCN(C/C=C/c2ccccc2)CC1)c1ccc(Cl)nc1 | inconclusive: 79.4 µM [inhibitor, single point] | –
C(=N\Nc1ccc2nncn2n1)/c1ccccn1 | inconclusive: 63.1 µM [inhibitor, single point] | –
O=C(N/N=C/c1ccccn1)c1cccc([N+](=O)[O-])c1 | inconclusive: 39.8 µM [inhibitor, single point] | –
Cc1ccc(NC(=S)Nn2cnnc2)c(C)c1 | – | inactive: 12.9%
O=C(Nc1nc(-c2ccccn2)cs1)c1ccc2c(c1)OCCO2 | inconclusive: 50.1 µM [inhibitor, single point] | –
COC(=O)c1ccc(C(=O)OC)c(NC(=O)CSc2cccc[n+]2[O-])c1 | inconclusive: 31.6 µM [inhibitor, single point] | –
S=C(Nc1ccccc1)c1ccccn1 | active: 20 µM | –
COCC(=O)OC/C(O)=C(\C#N)c1nc2ccccc2[nH]1 | inconclusive: 31.6 µM [inhibitor, single point] | –
CCc1ccc2c(c1)C1(NN=C(c3ccccc3)S1)C(=O)N2 (stereo not given) | active: 25.1 µM | –
C=CCc1cc(C)ccc1OCCCn1ccnc1 | – | inactive: 19.1%
Cc1ccc(Nc2nc(NCCO)c3ccccc3n2)cc1C | inconclusive: 79.4 µM [inhibitor, single point] | –
O=C1/C(=C\c2ccco2)CCC/C1=C\c1ccco1 | inconclusive: 200 µM [inhibitor, single point] | –
Cc1cc(C)nc(N/N=C/C2=C(O)CC(c3ccc(F)cc3)CC2=O)n1 (stereo not given) | inconclusive: 32.6 µM [inhibitor, partial curve, poor fit] | –
O=C(N/N=C/c1cc(Br)c(Br)o1)c1ccc2c(c1)OCCO2 | – | inactive: -14.6%
Cc1ccc(NS(=O)(=O)c2cc(NC(=O)c3ccc4c(c3)NC(=O)CS4)ccc2C)c(C)c1 | – | inactive: -19.4%

SMILES | Potency | viability change, negative = toxicity
Oc1ccc2ccccc2c1N=Nc1nccs1 | active: 10 µM | –
CN1CCc2c(sc(NC(=O)c3cc(Cl)sc3Cl)c2C(N)=O)C1 | inconclusive: 251 µM [inhibitor, partial curve] | –
CCn1c(CSc2n[nH]c(N)n2)nc2cc(C(=O)O)ccc21 | – | inactive: -3.86%
Cc1ccc(NNC(N)=S)cc1Cl | – | inactive: 13%
O=C(N/N=C/c1ccccn1)c1cccnc1 | – | inactive: -13.3%
COc1ccc(Cl)cc1C(=O)NNC(=O)c1nc2nc(C)cc(C)n2n1 | – | inactive: 12.3%
COc1ccc(CCN(Cc2ccccn2)C(=S)Nc2cccc(SC)c2)cc1OC | – | inactive: -25.5%
O=c1nc(N/N=C/c2ccccn2)cn[nH]1 | inconclusive: 79.4 µM [inhibitor, partial curve, poor fit] | –
Cc1cccc(OCc2nn[nH]n2)c1C | – | inactive: -4.44%
COc1ccc(C(=O)Nc2cc(C)nn2-c2nc3ccccc3[nH]2)c(OC)c1 | inconclusive: 79.4 µM [inhibitor, single point] | –
Oc1c(C(Nc2nc3ccccc3s2)c2ccco2)ccc2cccnc12 (stereo not given) | inconclusive: 39.8 µM [inhibitor, partial curve] | –
O=c1cnnc(N/N=C/c2ccccn2)[nH]1 | inconclusive: 31.6 µM [inhibitor, partial curve] | –
CCN(CC)C(=O)c1c(C)[nH]c(=S)c(C#N)c1-c1ccco1 | – | inactive: 1.41%
COc1ccccc1CN1CCN(Cc2cc(OC)c(OC)cc2OC)CC1 | – | inactive: 3.82%
CCc1ccc(Nc2n[n+](-c3ccccc3)c(-c3ccc(N(CC)CC)cc3)s2)cc1 | inconclusive: 63.1 µM [inhibitor, single point] | –
Nc1ncnc(Sc2ncccn2)c1[N+](=O)[O-] | inconclusive: 39.8 µM [inhibitor, single point] | –
O=C(CSc1cccc[n+]1[O-])Nc1ccccc1Oc1ccccc1 | active: 20 µM | –
Cc1c(NN=C(C#N)C#N)c(=O)n(-c2ccccc2)n1C | – | inactive: 21%
CN(c1ccccc1)S(=O)(=O)c1ccc(C(=O)Nc2nnc(C3CC3)o2)cc1 | inconclusive: 50.1 µM [inhibitor, partial curve] | –
CNC(=O)c1c(C)[nH]c(=S)c(C#N)c1-c1ccco1 | – | inactive: 15.3%
